The record followed here is ChEMBL document CHEMBL5606458, “ASAP - ZIKV NS2B-NS3 protease fluorescence single point” (2024).

In the experiment the target is Nonstructural protein 3 (Zika virus) (UniProt A0A024AXB9).
Setting [1] is: PRVABC59, Concentration 15.0 uM, Number of replicates 1.0.
[2] abbreviates: PRVABC59, Concentration 50.0 uM, Number of replicates 1.0.

Out of some 2,700 compounds screened, about 160 (5.9%) showed an effect of 50% or more. The list shows a part of the results.

Sequence of UniProt A0A024AXB9 (A0A024AXB9 as listed by the source): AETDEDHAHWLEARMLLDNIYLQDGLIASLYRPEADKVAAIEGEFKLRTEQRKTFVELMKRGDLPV

A word on the inhibition: it is the change of the read-out against control, counted positive when it falls. Regarding `CN(C)C(=O)CN1CCN(C(=O)c2cc(Cl)ccc2NS(=O)(=O)c2ccc(Oc3ccccc3Cl)cc2)CC1`, the inhibition under setting [1] came out at 3.21%. As for `O=C(Nc1c(Cl)cc(Cl)cc1Br)c1cc(Cl)ccc1NS(=O)(=O)c1ccc(Oc2ccccc2Cl)cc1`, the inhibition under setting [1] was 21.5%.

For `CCc1n[nH]c([C@H]2CN(C(=O)c3cn([C@H]4CCCNC4)nn3)CCO2)n1`, the inhibition is 1.98% (PRVABC59, Concentration 49.5 uM, Number of replicates 2.0, Standard deviation 0.0019020029795996259 %); 3.17% (PRVABC59, Concentration 99.01 uM, Number of replicates 2.0, Standard deviation 1.1165044088819678 %); 5.07% (PRVABC59, Concentration 198.0 uM, Number of replicates 2.0, Standard deviation 2.162632853057415 %). As for `CC(=O)Nc1ccc(NC(=O)c2cc(Cl)ccc2NS(=O)(=O)c2ccc(Oc3ccccc3Cl)cc2)cc1`, under setting [1], the inhibition turned out to be 63.1%. `CN(C(=O)C1CCN(c2ccc(C=O)cc2)CC1)[C@H]1CCN(Cc2ccccc2)C1`: the inhibition under setting [2] turned out to be 13.4%.

Consider `N#Cc1cc(Cl)ccc1NC(=O)C1CCN(c2ccc(C=O)cc2)CC1`, for which the inhibition under setting [2] worked out at 20.6%. Take `Cc1ccc2ccccc2c1NC(=O)c1cc(Cl)ccc1NS(=O)(=O)c1ccc(Oc2ccccc2Cl)cc1`: the inhibition under setting [1] was determined as 26.4%. As for `O=C(NCc1nc(-c2ccccn2)no1)c1cc(Cl)ccc1NS(=O)(=O)c1ccc(Oc2ccccc2Cl)cc1`, under setting [1], the inhibition came out at 54%. Turning to `O=C(NCCN1C(=O)CSC1=O)c1cc(Cl)ccc1NS(=O)(=O)c1ccc(Oc2ccccc2Cl)cc1`, the inhibition under setting [1] amounted to 10.6%. Turning to `c1cnc2c(C3CCN(Cc4csc5ccccc45)CC3)c[nH]c2c1`, the inhibition turned out to be 11.4% (PRVABC59, Concentration 49.5 uM, Number of replicates 2.0, Standard deviation 0.9335257205332559 %); 16.1% (PRVABC59, Concentration 99.01 uM, Number of replicates 2.0, Standard deviation 1.6284840941050231 %); 13.2% (PRVABC59, Concentration 198.0 uM, Number of replicates 2.0, Standard deviation 1.395101821034739 %). In the case of `COc1ccc(NC(=O)c2cc(Cl)ccc2NS(=O)(=O)c2ccc(Oc3ccccc3Cl)cc2)cc1C(F)(F)F`, the inhibition under setting [1] is 51.3%. On the same count and under the same terms, for `NC(=O)c1c(NC(=O)c2cc(Cl)ccc2NS(=O)(=O)c2ccc(Oc3ccccc3Cl)cc2)sc2c1CCCC2` the value was 41.9%.

Take `CC(C)N(C[C@H](O)c1ccc(O)c(O)c1)C(=O)c1cc(Cl)ccc1NS(=O)(=O)c1ccc(Oc2ccccc2Cl)cc1`: the inhibition under setting [1] was found to be 6.32%. In the case of `O=C(NCc1ccccc1N1CCOCC1)c1cc(Cl)ccc1NS(=O)(=O)c1ccc(Oc2ccccc2Cl)cc1`, under setting [1], the inhibition was 22%. `Cc1ccc(NC(=O)C2CCN(c3ccc(C=O)cc3)CC2)cc1Br`: under setting [2], the inhibition stood at 18.1%. For the molecule `COc1cc(Cc2cnn(-c3ccc(F)cc3)c2)nc(N2CCNCC2)n1`, the inhibition reads like this: (PRVABC59, Concentration 49.5 uM, Number of replicates 2.0, Standard deviation 1.9362885979262678 %) 4.42%; (PRVABC59, Concentration 99.01 uM, Number of replicates 2.0, Standard deviation 2.731346748235773 %) 8.59%; (PRVABC59, Concentration 198.0 uM, Number of replicates 2.0, Standard deviation 2.5982028307411302 %) 15.7%.

With `CC(C)(CO)NC(=O)c1cc(Cl)cc(NC(=O)c2cc(Cc3ccccc3)c[nH]2)c1`, the inhibition amounted to 4.04% (PRVABC59, Concentration 49.5 uM, Number of replicates 2.0, Standard deviation 1.6983362577782506 %); 6.14% (PRVABC59, Concentration 99.01 uM, Number of replicates 2.0, Standard deviation 1.226576129977383 %); 8.64% (PRVABC59, Concentration 198.0 uM, Number of replicates 2.0, Standard deviation 1.4604051596418826 %).

On to `NCc1cccc(NC(=O)C2(NC(=O)OCc3ccccc3)CC2)c1`, for which the inhibition was determined as 0.039% (PRVABC59, Concentration 49.5 uM, Number of replicates 2.0, Standard deviation 2.2679171979241746 %); 4.59% (PRVABC59, Concentration 99.01 uM, Number of replicates 2.0, Standard deviation 1.0231068239944325 %); 9.54% (PRVABC59, Concentration 198.0 uM, Number of replicates 2.0, Standard deviation 2.475082445346742 %).

Turning to `Cc1cc(CO)c2cccc(Cc3ccccc3NC(=O)C3(C(N)=O)CC3)c2n1`, the inhibition by setting is: (PRVABC59, Concentration 49.95 uM, Number of replicates 2.0, Standard deviation 1.5676160685642115 %) -1.28%; (PRVABC59, Concentration 99.9 uM, Number of replicates 2.0, Standard deviation 1.2673258947538377 %) 3.64%. In the case of `Cn1cc(CNC(=O)c2cccc3ncccc23)cn1`, the inhibition was -6.59% (PRVABC59, Concentration 49.5 uM, Number of replicates 2.0, Standard deviation 3.4483583759971688 %); -5.64% (PRVABC59, Concentration 99.01 uM, Number of replicates 2.0, Standard deviation 3.226070839328892 %); -4.62% (PRVABC59, Concentration 198.0 uM, Number of replicates 2.0, Standard deviation 3.66484751783471 %). On to `O=C(c1cc2ccccc2[nH]1)N1CCC[C@H](c2c[nH]c3ncccc23)C1`, for which the inhibition reads like this: (PRVABC59, Concentration 49.5 uM, Number of replicates 2.0, Standard deviation 0.30571435730989244 %) 3.85%; (PRVABC59, Concentration 99.01 uM, Number of replicates 2.0, Standard deviation 1.984552134267851 %) 8.09%; (PRVABC59, Concentration 198.0 uM, Number of replicates 2.0, Standard deviation 2.494939680141559 %) 7.71%. Consider `O=Cc1ccc(N2CCC(C(=O)Nc3ccn([C@H]4C[C@H](O)[C@@H](CO)O4)c(=O)n3)CC2)cc1`, for which, under setting [2], the inhibition stood at 20.2%. On the same count and under the same terms, for `Cc1ccccc1OC1CN(C(=O)C2CCN(c3ccc(C=O)cc3)CC2)C1` the value was 28.9%. As to `CN(CCC(c1ccccc1)c1ccccc1)C(=O)c1cc(Cl)ccc1NS(=O)(=O)c1ccc(Oc2ccccc2Cl)cc1`, under setting [1], the inhibition stood at 4.15%. With `Cc1cc(CO)c2cccc(C[C@H](NC(=O)C[C@H]3CCCN3)C(=O)O)c2n1`, the inhibition is -2.33% (PRVABC59, Concentration 49.95 uM, Number of replicates 2.0, Standard deviation 2.157802234162187 %) and -0.49% (PRVABC59, Concentration 99.9 uM, Number of replicates 2.0, Standard deviation 1.8065320647932943 %). Take `C[C@@]1(CNC(=O)c2ccnc3[nH]cnc23)CCCN1C(=O)c1cc[nH]n1`: the inhibition was -0.335% (PRVABC59, Concentration 49.5 uM, Number of replicates 2.0, Standard deviation 1.69185761281255 %); -1.72% (PRVABC59, Concentration 99.01 uM, Number of replicates 2.0, Standard deviation 1.822592163565219 %); -4.63% (PRVABC59, Concentration 198.0 uM, Number of replicates 2.0, Standard deviation 2.8325799380236654 %). For `O=Cc1ccc(N2CCC(C(=O)NCc3ccccc3N3CCOCC3)CC2)cc1`, under “PRVABC59, Concentration 10.0 uM, Number of replicates 1.0”, the inhibition is 18.6%. For `COc1ccccc1C1CCN(C(=O)c2cc(Cl)ccc2NS(=O)(=O)c2ccc(Oc3ccccc3Cl)cc2)CC1`, the inhibition under setting [1] was determined as 1.59%. For the molecule `Cc1cc(CO)c2cccc(NC(=O)c3cccc(Cn4cncn4)c3)c2n1`, the inhibition by setting is: (PRVABC59, Concentration 49.95 uM, Number of replicates 2.0, Standard deviation 2.574308180740061 %) -0.138%; (PRVABC59, Concentration 99.9 uM, Number of replicates 2.0, Standard deviation 1.9018768762288814 %) 11.1%. For the molecule `O=C(Nc1cc(Cl)ccc1OC(F)(F)F)c1cc(Cl)ccc1NS(=O)(=O)c1ccc(Oc2ccccc2Cl)cc1`, the inhibition under setting [1] is 23.2%. As for `COc1cc(COc2ccc(CO)cc2F)nc(N2CCNCC2)n1`, the inhibition (PRVABC59, Concentration 49.5 uM, Number of replicates 2.0, Standard deviation 1.1475105809259771 %) is 0.441%; the inhibition (PRVABC59, Concentration 99.01 uM, Number of replicates 2.0, Standard deviation 0.43704832054208337 %) is 3.74%; the inhibition (PRVABC59, Concentration 198.0 uM, Number of replicates 2.0, Standard deviation 1.1371536672540012 %) amounted to 9.77%. `Cc1cc(CO)c2cccc(Cc3ccccc3NC(=O)Cc3cccc(CN)c3)c2n1`: the inhibition (PRVABC59, Concentration 49.95 uM, Number of replicates 2.0, Standard deviation 1.7712024268821889 %) is -1.52% and the inhibition (PRVABC59, Concentration 99.9 uM, Number of replicates 2.0, Standard deviation 1.0942771725016864 %) amounted to 9.23%. In the case of `Nc1ccc(-c2cccc3c2CCB(O)O3)cn1`, under “PRVABC59, Concentration 500.0 uM, Number of replicates 2.0, Standard deviation 1.552271802404108 %”, the inhibition was 18.4%. For `O=C(c1cc(Cl)ccc1NS(=O)(=O)c1ccc(Oc2ccccc2Cl)cc1)N(Cc1cccc(F)c1)C1CCCC1`, the inhibition under setting [1] worked out at 23.4%. Regarding `O=C(NC1CCN(C(=O)Nc2ccccc2)CC1)c1cc(Cl)ccc1NS(=O)(=O)c1ccc(Oc2ccccc2Cl)cc1`, under setting [1], the inhibition turned out to be 18.2%. As for `CCn1ccnc(N[C@@H](CO)Cc2c[nH]c3ccccc23)c1=O`, the inhibition is, setting by setting: (PRVABC59, Concentration 49.5 uM, Number of replicates 2.0, Standard deviation 2.559614693531102 %) -0.575%; (PRVABC59, Concentration 99.01 uM, Number of replicates 2.0, Standard deviation 2.6505011797210702 %) 2.02%; (PRVABC59, Concentration 198.0 uM, Number of replicates 2.0, Standard deviation 3.157774062953111 %) 7.6%. Consider `O=Cc1ccc(N2CCC(C(=O)N3CCC(O)(c4ccc(Br)cc4)CC3)CC2)cc1`, for which, under setting [2], the inhibition worked out at 13.8%. In the case of `O=C(c1ccc(O)cc1)N1CCN(C(=O)c2cc(Cl)ccc2NS(=O)(=O)c2ccc(Oc3ccccc3Cl)cc2)CC1`, the inhibition under setting [1] was determined as 2.91%. With `COc1ccc([C@H](C)N(C)C(=O)C2CCN(c3ccc(C=O)cc3)CC2)cc1`, under setting [2], the inhibition amounted to 27.8%. For the molecule `O=C(NCCNC(=O)c1cc(Cl)ccc1NS(=O)(=O)c1ccc(Oc2ccccc2Cl)cc1)c1ccc(F)cc1`, the inhibition under setting [1] amounted to 38.7%. Regarding `c1ccc2c(CN3CCC(c4c[nH]c5ncccc45)CC3)ccnc2c1`, the inhibition reads like this: (PRVABC59, Concentration 49.5 uM, Number of replicates 2.0, Standard deviation 1.5534330323742802 %) 7.15%; (PRVABC59, Concentration 99.01 uM, Number of replicates 2.0, Standard deviation 1.0997070352890421 %) 10.6%; (PRVABC59, Concentration 198.0 uM, Number of replicates 2.0, Standard deviation 1.8020846028978792 %) 9.85%. On to `CC1(C)Cc2sc(NC(=O)Cc3ccc(S(N)(=O)=O)cc3)c(C#N)c2CN1CC1CCCCC1`, for which the inhibition is, setting by setting: (PRVABC59, Concentration 49.5 uM, Number of replicates 2.0, Standard deviation 1.0406888454660856 %) -1.66%; (PRVABC59, Concentration 99.01 uM, Number of replicates 2.0, Standard deviation 0.332333969654585 %) -2.97%; (PRVABC59, Concentration 198.0 uM, Number of replicates 2.0, Standard deviation 0.7848073624020794 %) -3.46%.

Turning to `C[C@@H](c1ccccc1)N(Cc1ccncc1)C(=O)C1CCN(c2ccc(C=O)cc2)CC1`, under setting [2], the inhibition came to 21.5%. `Cc1c(C(=O)NCCc2n[nH]c(=O)[nH]2)ccc(O)c1NC(=O)c1ccncc1F`: the inhibition reads like this: (PRVABC59, Concentration 49.5 uM, Number of replicates 2.0, Standard deviation 2.4379418837956695 %) 3.24%; (PRVABC59, Concentration 99.01 uM, Number of replicates 2.0, Standard deviation 1.9819611146087952 %) 4.74%; (PRVABC59, Concentration 198.0 uM, Number of replicates 2.0, Standard deviation 0.24871664525769976 %) 5.38%.
